According to article PMC10456296, “Trichoderols B-G, Six New Lipids from the Marine Algicolous Fungus Trichoderma sp. Z43” (Marine Drugs, 2023):
Converted amounts (≈) assume the structure as drawn.

Assay: Antimicroalgal activity, summary over the four phytoplankton species tested
Settings: read-out: IC50 against the phytoplankton species tested
CC=CCCC1(O)OC(C(O)C=CC)CC1O (stereo not shown) [Compound 1, Trichoderol B] gave an IC50 of 15 to 28 µg/mL (≈ 61.9 to 116 µM). Compound C/C=C/CCC(O)C(O)/C=C/C=C/C(O)CO (stereo not shown) [Compound 2, (3E,5E,11E)-trideca-3,5,11-trien-1,2,7,8-tetraol] has an IC50 of at least 30 µg/mL. For C=CCC(O)/C=C/C(O)C(O)CC/C=C/C (stereo not shown) [Compound 3, (5E,11E)-trideca-1,5,11-trien-4,7,8-triol], the IC50 was at least 30 µg/mL. Compound C/C=C/CCC(O)C(O)C/C=C/C(O)C(C)O (stereo not shown) [Compound 4, (4E,11E)-trideca-4,11-diene-2,3,7,8-tetraol] has an IC50 of at least 30 µg/mL. C/C=C/CCC(O)C(O)C/C=C/CC(C)O (stereo not shown) [Compound 5, (4E,11E)-trideca-4,11-dien-2,7,8-triol] gave an IC50 of at least 30 µg/mL. Compound C/C=C/CCC(O)C(O)C/C=C/CO (stereo not shown) [Compound 6, (2E,9E)-undeca-2,9-dien-1,5,6-triol] has an IC50 of at least 30 µg/mL. In the case of C/C=C/CC[C@@H](O)[C@@H](O)C/C=C/[C@@H](O)[C@H](C)O [Compound 7, triharzianin B], the IC50 was at least 30 µg/mL.
